# From the supplement of paper PMC8728848
# Some of the results follow.
# B1: BC2LB (Burholderia cenocepacia), B4EH85_BURCJ (protein)
# chain: MGSSHHHHHHSSGENLYFQGHMSQPFTHDDLYALLQLAGNDATAVQANGDQAVLDRMRQFMTAQLVEKLPQYDVFVDIATIPYSFDVGSWQNKVKTDAAGEVVACTVTWAGAPGVLPGAAAKFGVGAVVNYFSKATPH
# What was measured:
# Experiment in all cases: glycan array binding signal (z-score within array); higher = stronger binding
# Conditions in all cases: glycan notation: IUPAC condensed, linker removed
# Gal(a1-6)Glc = molecular target: Gal(a1-6)Glc
# How it was run: (§1)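 Arrays were curated from the Consortium for Functional Glycomics database, 3228 in total, and kept only where the protein sequence was available. Binding is expressed as a within-array Z-score. This score was averaged across arrays of the same protein sequence at different concentrations or buffers and across linkers, and negative values can be read as non-binding.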
# Gal(b1-2)Gal = molecular target: Gal(b1-2)Gal
# How it was run: as §1
# Gal(b1-3)Gal = molecular target: Gal(b1-3)Gal
# How it was run: as §1
# Gal(b1-3)Gal(b1-4)GlcNAc = molecular target: Gal(b1-3)Gal(b1-4)GlcNAc
# How it was run: as §1
# Gal(b1-3)GalNAc = molecular target: Gal(b1-3)GalNAc
# How it was run: as §1
# [1] = molecular target: Gal(b1-3)GalNAc(a1-3)[Fuc(a1-2)]Gal(b1-4)Glc
# How it was run: as §1
# [2] = molecular target: Gal(b1-3)GalNAc(a1-3)[Fuc(a1-2)]Gal(b1-4)GlcNAc
# How it was run: as §1
# Gal(b1-3)GalNAc(b1-3)Gal = molecular target: Gal(b1-3)GalNAc(b1-3)Gal
# How it was run: as §1
# [3] = molecular target: Gal(b1-3)GalNAc(b1-3)Gal(a1-4)Gal(b1-4)Glc
# How it was run: as §1
# [4] = molecular target: Gal(b1-3)GalNAc(b1-4)Gal(b1-4)Glc
# How it was run: as §1
# [5] = molecular target: Gal(b1-3)GalNAc(b1-4)[Neu5Ac(a2-3)]Gal(b1-4)Glc
# How it was run: as §1
# Gal(b1-3)GlcNAc = molecular target: Gal(b1-3)GlcNAc
# How it was run: as §1
# [6] = molecular target: Gal(b1-3)GlcNAc(a1-3)Gal(b1-4)GlcNAc
# How it was run: as §1
# [7] = molecular target: Gal(b1-3)GlcNAc(a1-6)Gal(b1-4)GlcNAc
# How it was run: as §1
# Gal(b1-3)GlcNAc(b1-2)Man = molecular target: Gal(b1-3)GlcNAc(b1-2)Man
# How it was run: as §1
# [8] = molecular target: Gal(b1-3)GlcNAc(b1-2)Man(a1-3)[Gal(b1-3)GlcNAc(b1-2)Man(a1-6)]Man(b1-4)GlcNAc(b1-4)GlcNAc
# How it was run: as §1
# [9] = molecular target: Gal(b1-3)GlcNAc(b1-2)Man(a1-3)[Gal(b1-3)GlcNAc(b1-2)Man(a1-6)]Man(b1-4)GlcNAc(b1-4)[Fuc(a1-6)]GlcNAc
# How it was run: as §1
# [10] = molecular target: Gal(b1-3)GlcNAc(b1-2)Man(a1-3)[GlcNAc(b1-4)][Gal(b1-3)GlcNAc(b1-2)Man(a1-6)]Man(b1-4)GlcNAc(b1-4)GlcNAc
# How it was run: as §1
# [11] = molecular target: Gal(b1-3)GlcNAc(b1-2)[Gal(b1-3)GlcNAc(b1-6)]Man(a1-6)[Gal(b1-3)GlcNAc(b1-2)Man(a1-3)]Man(b1-4)GlcNAc(b1-4)GlcNAc
# How it was run: as §1
# [12] = molecular target: Gal(b1-3)GlcNAc(b1-3)Gal(b1-3)GlcNAc
# How it was run: as §1
# [13] = molecular target: Gal(b1-3)GlcNAc(b1-3)Gal(b1-4)Glc
# How it was run: as §1
# [14] = molecular target: Gal(b1-3)GlcNAc(b1-3)Gal(b1-4)GlcNAc
# How it was run: as §1
# [15] = molecular target: Gal(b1-3)GlcNAc(b1-3)Gal(b1-4)GlcNAc(b1-2)Man(a1-3)[Gal(b1-3)GlcNAc(b1-3)Gal(b1-4)GlcNAc(b1-2)Man(a1-6)]Man(b1-4)GlcNAc(b1-4)GlcNAc
# How it was run: as §1
# [16] = molecular target: Gal(b1-3)GlcNAc(b1-3)Gal(b1-4)GlcNAc(b1-2)[Gal(b1-3)GlcNAc(b1-3)Gal(b1-4)GlcNAc(b1-6)]Man(a1-6)[Gal(b1-3)GlcNAc(b1-3)Gal(b1-4)GlcNAc(b1-2)Man(a1-3)]Man(b1-4)GlcNAc(b1-4)[Fuc(a1-6)]GlcNAc
# How it was run: as §1
# [17] = molecular target: Gal(b1-3)GlcNAc(b1-3)Gal(b1-4)GlcNAc(b1-3)Gal(b1-4)GlcNAc(b1-2)[Gal(b1-3)GlcNAc(b1-3)Gal(b1-4)GlcNAc(b1-3)Gal(b1-4)GlcNAc(b1-6)]Man(a1-6)[Gal(b1-3)GlcNAc(b1-3)Gal(b1-4)GlcNAc(b1-3)Gal(b1-4)GlcNAc(b1-2)Man(a1-3)]Man(b1-4)GlcNAc(b1-4)[Fuc(a1-6)]GlcNAc
# How it was run: as §1
# [18] = molecular target: Gal(b1-3)GlcNAc(b1-3)Gal(b1-4)GlcNAc(b1-6)[Gal(b1-3)GlcNAc(b1-3)]Gal(b1-4)Glc
# How it was run: as §1
# [19] = molecular target: Gal(b1-3)GlcNAc(b1-3)Gal(b1-4)[Fuc(a1-3)]GlcNAc
# How it was run: as §1
# [20] = molecular target: Gal(b1-3)GlcNAc(b1-3)Gal(b1-4)[Fuc(a1-3)]GlcNAc(b1-6)[Gal(b1-3)GlcNAc(b1-3)]Gal(b1-4)Glc
# How it was run: as §1
# [21] = molecular target: Gal(b1-3)GlcNAc(b1-3)GalNAc
# How it was run: as §1
# [22] = molecular target: Gal(b1-3)GlcNAc(b1-6)Gal(b1-4)GlcNAc
# How it was run: as §1
# [23] = molecular target: Gal(b1-3)GlcNAc(b1-6)GalNAc
# How it was run: as §1
# [24] = molecular target: Gal(b1-3)GlcNAc(b1-6)[Gal(b1-3)]GalNAc
# How it was run: as §1
# Gal(b1-3)GlcNAc6S = molecular target: Gal(b1-3)GlcNAc6S
# How it was run: as §1
# [25] = molecular target: Gal(b1-3)[Fuc(a1-4)]GlcNAc
# How it was run: as §1
# [26] = molecular target: Gal(b1-3)[Fuc(a1-4)]GlcNAc(b1-2)Man
# How it was run: as §1
# [27] = molecular target: Gal(b1-3)[Fuc(a1-4)]GlcNAc(b1-2)Man(a1-3)[Gal(b1-3)[Fuc(a1-4)]GlcNAc(b1-2)Man(a1-6)]Man(b1-4)GlcNAc(b1-4)[Fuc(a1-6)]GlcNAc
# How it was run: as §1
# [28] = molecular target: Gal(b1-3)[Fuc(a1-4)]GlcNAc(b1-3)Gal(b1-3)[Fuc(a1-4)]GlcNAc
# How it was run: as §1
# [29] = molecular target: Gal(b1-3)[Fuc(a1-4)]GlcNAc(b1-3)Gal(b1-4)[Fuc(a1-3)]GlcNAc
# How it was run: as §1
# [30] = molecular target: Gal(b1-3)[Fuc(a1-4)]GlcNAc(b1-6)GalNAc
# How it was run: as §1
# [31] = molecular target: Gal(b1-3)[GlcNAc(b1-6)]GalNAc
# How it was run: as §1
# [32] = molecular target: Gal(b1-3)[Neu5Ac(a2-6)]GalNAc
# How it was run: as §1
# [33] = molecular target: Gal(b1-3)[Neu5Ac(a2-6)]GlcNAc(b1-4)Gal(b1-4)Glc
# How it was run: as §1
# [34] = molecular target: Gal(b1-3)[Neu5Ac(b2-6)]GalNAc
# How it was run: as §1
# Gal(b1-4)Gal = molecular target: Gal(b1-4)Gal
# How it was run: as §1
# [35] = molecular target: Gal(b1-4)GalNAc(a1-3)[Fuc(a1-2)]Gal(b1-4)GlcNAc
# How it was run: as §1
binder,measurement,setting,value
B1,glycan array binding signal (z-score),Gal(a1-6)Glc,-0.339
same,glycan array binding signal (z-score),Gal(b1-2)Gal,0.168
same,glycan array binding signal (z-score),Gal(b1-3)Gal,-0.185
same,glycan array binding signal (z-score),Gal(b1-3)Gal(b1-4)GlcNAc,-0.06
same,glycan array binding signal (z-score),Gal(b1-3)GalNAc,-0.261
same,glycan array binding signal (z-score),[1],-0.165
same,glycan array binding signal (z-score),[2],-0.262
same,glycan array binding signal (z-score),Gal(b1-3)GalNAc(b1-3)Gal,-0.301
same,glycan array binding signal (z-score),[3],0.079
same,glycan array binding signal (z-score),[4],-0.152
same,glycan array binding signal (z-score),[5],-0.226
same,glycan array binding signal (z-score),Gal(b1-3)GlcNAc,-0.24
same,glycan array binding signal (z-score),[6],-0.314
same,glycan array binding signal (z-score),[7],-0.227
same,glycan array binding signal (z-score),Gal(b1-3)GlcNAc(b1-2)Man,0.003
same,glycan array binding signal (z-score),[8],-0.185
same,glycan array binding signal (z-score),[9],-0.007
same,glycan array binding signal (z-score),[10],0.126
same,glycan array binding signal (z-score),[11],0.077
same,glycan array binding signal (z-score),[12],-0.203
same,glycan array binding signal (z-score),[13],-0.223
same,glycan array binding signal (z-score),[14],-0.324
same,glycan array binding signal (z-score),[15],0.26
same,glycan array binding signal (z-score),[16],-0.01
same,glycan array binding signal (z-score),[17],-0.08
same,glycan array binding signal (z-score),[18],-0.264
same,glycan array binding signal (z-score),[19],-0.255
same,glycan array binding signal (z-score),[20],-0.264
same,glycan array binding signal (z-score),[21],-0.408
same,glycan array binding signal (z-score),[22],-0.219
same,glycan array binding signal (z-score),[23],-0.294
same,glycan array binding signal (z-score),[24],-0.3
same,glycan array binding signal (z-score),Gal(b1-3)GlcNAc6S,-0.204
same,glycan array binding signal (z-score),[25],0.255
same,glycan array binding signal (z-score),[26],-0.354
same,glycan array binding signal (z-score),[27],-0.098
same,glycan array binding signal (z-score),[28],-0.301
same,glycan array binding signal (z-score),[29],-0.154
same,glycan array binding signal (z-score),[30],-0.203
same,glycan array binding signal (z-score),[31],-0.228
same,glycan array binding signal (z-score),[32],-0.283
same,glycan array binding signal (z-score),[33],-0.126
same,glycan array binding signal (z-score),[34],-0.265
same,glycan array binding signal (z-score),Gal(b1-4)Gal,-0.306
same,glycan array binding signal (z-score),[35],-0.333
